First the molecules themselves.
B1: PhoQ; a variant is named by its letters at X, in order, P23837 (parent)
chain: MKKLLRLFFPLSLRVRFLLATAAVVLVLSLAYGMVALIGYSVSFDKTTFRLLRGESNLFYTLAKWENNKLHVELPENIDKQSPTMTLIYDENGQLLWAQRDVPWLMKMIQPDWLKSNGFHEIEADVNDTSLLLSGDHSIQQQLQEVREDDDDAEMTHSVAVNVYPATSRMPKLTIVVVDTIPVELKSSYMVWSWFIYVLSANLLLVIPLLWVAAWWSLRPIEALAKEVRELEEHNRELLNPATTRELTSLVRNLNRLLKSERERYDKYRTTLTDLTHSLKTPLXXLQXXLRSLRSEKMSVSDAEPVMLEQISRISQQIGYYLHRASMRGGTLLSRELHPVAPLLDNLTSALNKVYQRKGVNISLDISPEISFVGEQNDFVEVMGNVLDNACKYCLEFVEISARQTDEHLYIVVEDDGPGIPLSKREVIFDRGQRVDTLRPGQGVGLAVAREITEQYEGKIVAGESMLGGARMEVIFGRQHSAPKDE

This is one part of the list. Bounds are passed on as bounds.

The variants in this experiment derive from B1. The experiment is described as follows: enrichment ratio after two sorts for PhoP signalling (ratio (wild type AVST 3.29)); higher = more functional. The conditions noted are these: with PhoP (E. coli).
Take VHKI: the enrichment ratio is not above 0.25. As for SFNH, the figure is not above 0.25; as for WHSD, not above 0.25; as for HVAW, not above 0.25. The result for VSPH reads not above 0.25; that for DWTS, not above 0.25. As for AALK, the figure is 12; as for IQIY, not above 0.25. Take KRMV: the enrichment ratio is not above 0.25. For DAIS, the enrichment ratio is not above 0.25.

KCSG: the enrichment ratio is not above 0.25. On to ARTI, for which the enrichment ratio turned out to be 0.912. Turning to PPHI, the enrichment ratio is not above 0.25. The result for TYVR reads not above 0.25; that for NLCC, not above 0.25; that for TPPW, not above 0.25. For the variant KHAI, the enrichment ratio is not above 0.25. As for YCCN, the figure is 0.253; as for NFAC, not above 0.25; as for FAIV, not above 0.25. As for ATGT, the figure is not above 0.25. With TGMM, the enrichment ratio is 16. Regarding TWCE, the enrichment ratio is not above 0.25. Consider HRCM, for which the enrichment ratio was not above 0.25. On to WNTG, for which the enrichment ratio is not above 0.25. The result for GRRF reads not above 0.25; that for WPGT, not above 0.25. VVHH: the enrichment ratio was not above 0.25. As for VGHH, the figure is not above 0.25.

In the case of VRSY, the enrichment ratio is not above 0.25. As for SNPH, the enrichment ratio was not above 0.25.

In the case of HNFR, the enrichment ratio is not above 0.25. For the variant FGDE, the enrichment ratio was not above 0.25. As for SHHG, the figure is not above 0.25. As for ALWE, the figure is not above 0.25. As for KYIR, the figure is not above 0.25; as for EPYP, not above 0.25. In the case of KFMR, the enrichment ratio was not above 0.25.

On to DFGF, for which the enrichment ratio was not above 0.25. The result for KNPL reads not above 0.25; that for QVHM, not above 0.25.

Take RHAL: the enrichment ratio was not above 0.25. The result for MEGN reads 10.8. The result for ILGA reads not above 0.25; that for HKRD, not above 0.25; that for AWLV, not above 0.25. As for IQES, the figure is not above 0.25; as for YRII, not above 0.25. In the case of LAWT, the enrichment ratio was not above 0.25. As to ITMT, the enrichment ratio was not above 0.25. As for DTYA, the figure is not above 0.25; as for MEAH, 28.9; as for NHPI, not above 0.25. QMPY: the enrichment ratio is not above 0.25. With GQVR, the enrichment ratio was not above 0.25. As for PMKL, the figure is not above 0.25. With TAVI, the enrichment ratio is not above 0.25. The result for ACNW reads not above 0.25; that for DMGH, not above 0.25. As for CIST, the figure is not above 0.25; as for ISWE, not above 0.25; as for SGLM, 17.9. With SPDG, the enrichment ratio is not above 0.25.

Take MHFR: the enrichment ratio came out at 0.537. As for SRNF, the enrichment ratio was not above 0.25. As to QVIR, the enrichment ratio was not above 0.25. With SSFT, the enrichment ratio is not above 0.25. As for MDKT, the figure is not above 0.25. On to SCLI, for which the enrichment ratio was 6.18.

In the case of SLCC, the enrichment ratio was found to be 8.22. The result for MEER reads not above 0.25.

With TTRF, the enrichment ratio is not above 0.25. As for GYEW, the figure is not above 0.25; as for MHLF, not above 0.25; as for RRTL, not above 0.25. As for FTEW, the figure is not above 0.25; as for IDFH, not above 0.25; as for MTKA, not above 0.25.

Consider HEKA, for which the enrichment ratio is not above 0.25. On to LTVC, for which the enrichment ratio is not above 0.25. In the case of SPMV, the enrichment ratio was not above 0.25. Regarding SLTR, the enrichment ratio is not above 0.25. As for GEIC, the figure is 45.3; as for HEND, not above 0.25; as for AQSI, 18.6.

In the case of VLWT, the enrichment ratio is not above 0.25. As for STES, the figure is not above 0.25; as for GILT, 3.61. As for KLMR, the figure is not above 0.25; as for GWWR, not above 0.25; as for THVF, 0.475. As for ENDP, the figure is not above 0.25; as for DNIH, not above 0.25.

On to ADRK, for which the enrichment ratio is not above 0.25. The result for LSEC reads not above 0.25; that for NPLP, not above 0.25; that for FTQY, not above 0.25. The result for RVME reads not above 0.25; that for GNWN, not above 0.25; that for HGLS, 2.46.

Regarding ICEN, the enrichment ratio was not above 0.25.

Consider WCWM, for which the enrichment ratio was not above 0.25. For RKQV, the enrichment ratio is not above 0.25. With SEIT, the enrichment ratio amounted to 8.27. The result for AKIR reads not above 0.25; that for DREG, not above 0.25; that for MCSW, not above 0.25.

In the case of IWWL, the enrichment ratio was not above 0.25. In the case of AGQS, the enrichment ratio was not above 0.25. As to PGLS, the enrichment ratio is not above 0.25.

For AFYY, the enrichment ratio was not above 0.25. The result for NDRW reads not above 0.25. The result for WIFQ reads not above 0.25; that for VLDN, not above 0.25; that for PELL, not above 0.25. As for PVHK, the figure is not above 0.25; as for TENM, 15.7; as for DWLR, 0.787.

As to VTHW, the enrichment ratio was not above 0.25. For the variant VQDV, the enrichment ratio is not above 0.25. The result for RCQA reads not above 0.25; that for AALG, 8.12. In the case of QGLA, the enrichment ratio turned out to be 2.96.

For SGEL, the enrichment ratio was not above 0.25.

As to IVDE, the enrichment ratio is not above 0.25. As for DFWL, the figure is not above 0.25; as for DRLP, not above 0.25; as for SCFC, not above 0.25. With WTPM, the enrichment ratio was not above 0.25. The result for NHPQ reads not above 0.25; that for EVNC, not above 0.25; that for NKRY, not above 0.25. Consider TATD, for which the enrichment ratio is not above 0.25. As for MPNY, the figure is not above 0.25; as for RGQD, not above 0.25. As for PLIV, the figure is not above 0.25; as for DSQH, not above 0.25; as for ETAK, not above 0.25. For YFPF, the enrichment ratio is not above 0.25. As to RCEI, the enrichment ratio was not above 0.25.

With WKFF, the enrichment ratio was not above 0.25. With TLNS, the enrichment ratio was determined as 6.81. Regarding HIRL, the enrichment ratio was not above 0.25. As to TGTC, the enrichment ratio is 10.4. For the variant PRDF, the enrichment ratio is not above 0.25. As to HEFT, the enrichment ratio was not above 0.25. Turning to HTWL, the enrichment ratio was not above 0.25. The result for DERA reads not above 0.25. As for AEPI, the figure is not above 0.25; as for MSIA, not above 0.25. The result for VQQQ reads not above 0.25; that for IRED, not above 0.25; that for QKYV, not above 0.25.

The values are drawn from a collection of fitness landscapes (doi:10.1126/science.1257360).
